# Assay results from PubChem BioAssay AID485281 (National Center for Advancing Translational Sciences (NCATS), 2010).
# In all, about 350,000 compounds went through this assay and about 260 (0.074%) were called active. The shares of active, inactive and inconclusive entries below differ from those in the screen. Calls follow the shape of the dose curve; as a rule, active = well fitted inhibition curve with a large enough effect; inconclusive = small, poorly fitted or top-dose-only effect; inactive = no such curve, though single readings can be large or run the other way. A potency beside an inconclusive call is a rough fit, not a confirmed value.
# Biological target: Ferritin light chain (Equus caballus) (UniProt P02791)
# Assay: qHTS Assay for Identification of Novel General Anesthetics; also: nearly all actives have a fitted effect of over 20% in size
# Settings: apoferritin/1-aminoanthracene competitive binding, fluorescence; series mostly up to 77.5 µM
# Summary of the method: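 Horse-spleen apoferritin (10 uM) in 50% saturated 1-aminoanthracene in PBS was incubated 10 min at room temperature with compound. Fluorescence (ex 380, em 535 nm) was normalized to free and bound 1-AMA, with concentration-response fitted by a four-parameter Hill equation.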
# Potency is read from the fitted curve at half-maximal effect; tags tell the direction and shape of the fitted curve.
# Chain of UniProt P02791 (P02791 whole entry, looked up): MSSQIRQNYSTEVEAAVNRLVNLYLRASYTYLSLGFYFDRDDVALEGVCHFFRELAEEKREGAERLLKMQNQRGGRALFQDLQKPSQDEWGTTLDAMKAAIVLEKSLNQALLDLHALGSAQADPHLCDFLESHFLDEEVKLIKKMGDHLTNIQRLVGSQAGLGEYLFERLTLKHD
row,Compound,Potency
1,Cc1cc(Cl)ccc1OCC(=O)OCC(=O)Nc1ccc(F)c([N+](=O)[O-])c1,"inconclusive: 31.6 µM [inhibitor, partial curve, poor fit]"
2,CCOc1ccc(C(C)=O)cc1COc1ccc(-n2cnnn2)cc1,"inconclusive: 35.5 µM [inhibitor, partial curve]"
3,CC(C)(C)OC(=O)NCCC(=O)N/N=C/c1ccc2nccnc2c1,"inconclusive: 14.1 µM [inhibitor, partial curve]"
4,CC(=O)N1CCCc2cc(S(=O)(=O)NC(C(=O)NC3CCCCC3)C(C)C)ccc21 (centres undefined),inactive
5,CCOC(=O)c1ccc(NC(=O)c2nc[nH]c2C(=O)NCC(=O)OC(C)(C)C)cc1,"inconclusive: 22.4 µM [inhibitor, partial curve]"
6,CCN1CCN(S(=O)(=O)c2ccc(C(=O)Nc3sc4c(c3C(N)=O)CCN(CC)C4)cc2)CC1,"inconclusive: 35.5 µM [inhibitor, single point]"
7,Cc1csc(NC(=S)Nc2cccc(Cl)c2)n1,"inconclusive: 50.1 µM [inhibitor, single point]"
8,CCc1ccc(OCC(=O)NC(=S)Nc2ccc(S(=O)(=O)NC3CCCCC3)cc2)cc1,"inconclusive: 25.1 µM [inhibitor, partial curve]"
9,COCCCNC(=O)c1cnc2sc(N3CCCCCC3)nn2c1=O,inactive
10,NCCCCCCNc1nc2c(N)ncnc2n1[C@@H]1O[C@@H]2COP(=O)(O)O[C@H]2[C@H]1O,inactive
11,NC(=O)Nc1ccc(Oc2ncc(C(F)(F)F)cc2Cl)cc1,"inconclusive: 6.31 µM [inhibitor, partial curve]"
12,O=S1(=O)C=C(Oc2ccc3ccccc3c2)c2ccccc21,"inconclusive: 14.1 µM [inhibitor, partial curve]"
13,Cc1ccccc1-c1nnn(CC(=O)Nc2ccc3c(c2)OCCO3)n1,"inconclusive: 11.2 µM [inhibitor, partial curve]"
14,COc1cc(CNCc2ccccn2)ccc1OCc1ccc(Cl)cc1Cl,active: 20 µM
15,O=C(CSc1ncnc2c1oc1ccccc12)OCc1ccccc1,"inconclusive: 15.8 µM [inhibitor, partial curve]"
16,Oc1ccc(Br)cc1CNc1cccc2cccnc12,"inconclusive: 22.4 µM [inhibitor, partial curve]"
17,O=C(CCCl)N1CCCC2(CCCCC2)C1,"inconclusive: 15.8 µM [inhibitor, partial curve]"
18,CCN(CC)C(=O)CSc1nnc(-c2c[nH]c3ccccc23)o1,"inconclusive: 0.794 µM [inhibitor, full curve, poor fit]"
19,CC(C)(C)c1ccc(C(=O)NC(=S)NCc2cccnc2)cc1,"inconclusive: 35.5 µM [inhibitor, single point]"
20,O=S(=O)(Cc1ccccc1)c1cnc2ccccc2n1,"inconclusive: 35.5 µM [inhibitor, partial curve]"
21,COc1ccc(Br)cc1C1Nc2cccc3cccc(c23)N1,inactive
22,Cn1c(NC2CCCCC2)cc(=O)n(C)c1=O,inactive
23,Cc1cccc(NC(=O)c2nc[nH]c2C(=O)N[C@@H](C)C(=O)OCc2ccccc2)c1,"inconclusive: 39.8 µM [inhibitor, partial curve]"

row,Compound,Potency
1,C/C(N)=C(/C#N)C(=O)COC(=O)CC1CCCC1,"inconclusive: 25.1 µM [inhibitor, partial curve]"
2,COc1ccc2nc(Nc3ccccc3)sc2c1,"inconclusive: 25.1 µM [inhibitor, partial curve]"
3,Cc1ccccc1CSc1nsc(N)n1,"inconclusive: 17.8 µM [inhibitor, partial curve]"
4,NS(=O)(=O)c1ccc(N=NN2CCCCC2)cc1,"inconclusive: 25.1 µM [inhibitor, partial curve]"
5,O=C(c1ccc(S(=O)(=O)N2CCCCC2)cc1)N1CCc2ccccc2C1,"inconclusive: 20 µM [inhibitor, partial curve]"
6,O=C(CSc1ncc(-c2ccccc2)[nH]1)Nc1ccc(Cl)cc1,"inconclusive: 3.55 µM [inhibitor, full curve]"
7,CCC1SC2=NC(C)=C(C(=O)OCC(C)C)C(/C=C/c3ccccc3OC)N2C1=O (centres undefined),"inconclusive: 12.6 µM [inhibitor, partial curve]"
8,O=C(N/N=C/c1sc(N2CCOCC2)nc1-c1ccccc1)c1cccc(S(=O)(=O)N2CCCC2)c1,inactive
9,Cc1c(C(=O)OCC(=O)c2ccc3c(c2)OCCO3)oc2ccccc12,"inconclusive: 11.2 µM [inhibitor, partial curve]"
10,Cc1ccccc1CNC(=O)c1oc2c(c1C)-c1[nH]ncc1CC2,inactive
11,CC(C)C1C(=O)Nc2ccc(S(=O)(=O)NCCc3ccc(Cl)cc3)cc21 (centres undefined),inactive
12,Cc1cc(C)nc(SCc2nnc(SCc3ccccc3Cl)o2)n1,"inconclusive: 50.1 µM [inhibitor, single point]"
13,Cc1c(C)n(Cc2ccccc2)c2ncnc(Cl)c12,"inconclusive: 35.5 µM [inhibitor, single point]"
14,COC(=O)c1ccc(COC(=O)C23CC4CC(CC(O)(C4)C2)C3)o1,"inconclusive: 35.5 µM [inhibitor, partial curve]"
15,Nc1nc2ncc(C(=O)c3cc(Cl)cc(Cl)c3O)cc2s1,inactive
16,CCc1cc(C(=O)Nc2sc(C)c(CC)c2C#N)no1,"inconclusive: 25.1 µM [inhibitor, partial curve]"
17,COc1ccc(N2CC(C(=O)N/N=C/c3cc([N+](=O)[O-])ccc3O)CC2=O)cc1 (centres undefined),inactive
18,O=C(c1cccc(N2C(=O)C3C4C=CC(C4)C3C2=O)c1)N1CCN(c2ccccc2F)CC1 (centres undefined),"inconclusive: 25.1 µM [inhibitor, single point]"
19,N#C/C(=C\c1c(N2CCC(C(N)=O)CC2)nc2ccccn2c1=O)S(=O)(=O)c1ccccc1,"inconclusive: 20 µM [inhibitor, partial curve]"
20,C=CCc1cc(/C=N\NC(=O)CSc2nnc(CCCc3ccc(OC)c(C)c3)o2)cc(OC)c1O,"inconclusive: 11.2 µM [inhibitor, partial curve]"
21,Cc1nc2ccccc2n1CC(=O)NC(C)C1CC2CCC1C2 (centres undefined),"inconclusive: 28.2 µM [inhibitor, single point]"
22,COc1ccc(CCNC(=O)c2cnn(-c3cccc(C)c3)c2C2CCN(C(=O)OC(C)(C)C)CC2)cc1OC,inactive
23,CCCCc1ccc(NC(=O)CC(C)(C)C)cc1,"inconclusive: 44.7 µM [inhibitor, partial curve]"

row,Compound,Potency
1,C=CCNC(=O)c1oc2ccc(S(=O)(=O)N(CC)CC)cc2c1C,"inconclusive: 31.6 µM [inhibitor, partial curve]"
2,O=C(COC(=O)CCSc1ccccc1)Nc1cc(F)ccc1F,"inconclusive: 15.8 µM [inhibitor, partial curve]"
3,COc1ccc(/C=C/C(=O)NC(=S)NNC(=O)c2c(-c3ccccc3)noc2C)cc1,inactive
4,Oc1ccc(Nc2nc(NCC3CCCO3)c3ccccc3n2)cc1 (centres undefined),inactive
5,O=C(CC1S/C(=N/N=C2CCCCCC2)NC1=O)Nc1ccccc1F (centres undefined),"inconclusive: 35.5 µM [inhibitor, single point]"
6,CCOC(=O)COc1ccc(C2NC(C(=O)O)CS2)cc1 (centres undefined),inactive
7,O=C(NNc1ccc(Cl)cc1)C1CCC1,inactive
8,Cc1ccc(N2C(=O)C3C4C=CC(C4)C3C2=O)cc1C (centres undefined),"inconclusive: 7.08 µM [inhibitor, full curve]"
9,CC1Cc2ccccc2N1C(=O)COC(=O)c1ccc(Br)o1 (centres undefined),"inconclusive: 22.4 µM [inhibitor, partial curve]"
10,CCC(CC)COC(=O)C1=C(C)NC(=O)NC1c1ccc([N+](=O)[O-])cc1 (centres undefined),"inconclusive: 39.8 µM [inhibitor, partial curve]"
11,COc1cc(S(=O)(=O)N2CCCCCC2)ccc1-n1cnnn1,"inconclusive: 20 µM [inhibitor, partial curve]"
12,COc1ccc(CCNC(=O)CN2CCN(c3cccc(C(F)(F)F)c3)CC2)cc1,"inconclusive: 31.6 µM [inhibitor, partial curve]"
13,C=CCOc1ccc2c(OC)c3ccoc3nc2c1OC,inactive
14,CCOc1ccccc1N(C(=O)c1snc(C(N)=O)c1N)C(CC)C(=O)NC1CCCC1 (centres undefined),inactive
15,CC(NC(=S)Nc1ccc(OC(F)F)cc1OC(F)F)C(C)(C)C (centres undefined),"inconclusive: 31.6 µM [inhibitor, single point]"
16,CC1CCN(S(=O)(=O)c2ccc3c(c2)c(=O)c(C(=O)NC(C)c2ccccc2)cn3C)CC1 (centres undefined),"inconclusive: 10 µM [inhibitor, full curve, poor fit]"
17,CC(C)c1ccc(NC2CCCN(C(=O)c3cccs3)C2)cc1 (centres undefined),"inconclusive: 31.6 µM [inhibitor, partial curve]"
18,Cc1cnc(=O)[nH]c1SCc1cccc(C(F)(F)F)c1,"inconclusive: 25.1 µM [inhibitor, partial curve]"
19,COc1cccc(NS(=O)(=O)c2c(C)cc(C)cc2C)c1,"inconclusive: 31.6 µM [inhibitor, partial curve]"
20,Cc1oc2ncn(C)c(=O)c2c1C(=O)NCCCN1CCCCC1C (centres undefined),inactive
21,CC(=O)c1cc(-c2ccc(F)cc2)n(CC(=O)NC2CCC(C)CC2)c1C (centres undefined),"inconclusive: 50.1 µM [inhibitor, single point]"
22,CCn1c(Cc2cccs2)nnc1SCC(=O)Nc1ccc(OC)c(OC)c1,"inconclusive: 28.2 µM [inhibitor, single point]"
23,O=C(Cn1nc(-c2ccccc2F)ccc1=O)NCc1ccc2c(c1)OCO2,"inconclusive: 6.31 µM [inhibitor, full curve]"
